The campaign covered roughly 360,000 compounds. About 11,000 (3.1%) were called active. Inconclusive results, whose numbers are uncertain, are shown with a selection of clear calls. Calls come from the whole dose curve; as a rule, active = well fitted inhibition curve with a large enough effect; inconclusive = small, poorly fitted or top-dose-only effect; inactive = no such curve, though single readings can be large or run the other way. No potency is given beside an inconclusive call; the fits are too rough.
Target: Schistosoma mansoni thioredoxin glutathione reductase (TGR) (UniProt Q962Y6)
Experiment: qHTS Assay for the Inhibitors of Schistosoma Mansoni Peroxiredoxins; note: nearly all actives have a fitted effect of over 60% in size
Settings: purified TGR, DTNB reduction, TNB absorbance 405 nm; activity change, negative = inhibition: at 114 µM (top of the series) unless noted
Method in brief: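 TGR 20 nM + NADPH 100 uM (dispensed conc.), cpd preinc 15 min RT; start with NADPH (500 uM addition) then DTNB (15 mM addition). Kinetic TNB absorbance, 405 nm filter. Four-parameter Hill fit across titration.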
% is set by controls: 0 for no effect and ±100 for the full control effect; potency is the fitted concentration of half-maximal effect; tags give direction and shape of the fitted curve.

Structure (SMILES)	Potency	activity change, negative = inhibition
COC(=O)c1sc(NC(=O)CSc2nnc(Cn3nnc4ccccc43)n2C)nc1C	inconclusive [inhibitor, partial curve]	
CC1=C(C(=O)Nc2ccc(CC(=O)NCc3ccccc3C)cc2)SCCO1		inactive: 2.6%
CCOc1cc(N2CCOCC2)c(OCC)cc1NC(=O)COC(=O)CCOc1ccc(C)cc1	inconclusive [inhibitor, partial curve]	
CCN(CC)CCN1C(=O)C(=O)/C(=C(/O)c2ccc(OC(C)C)cc2)C1c1cccs1 (configuration not stated)	inconclusive [inhibitor, partial curve]	
CCN(CC)C(=O)CSc1nc(-c2cccs2)cc(-c2cccs2)c1C#N	inconclusive [inhibitor, partial curve, poor fit]	
Cc1nn(-c2ccccc2)c(C)c1/C=N/n1c(-c2ccc(Cl)cc2)n[nH]c1=S		inactive: -8.55%
CCCC(=O)OCCNc1cc(Sc2nccn2C)c2nonc2c1[N+](=O)[O-]	active: 0.398 µM	
Cc1ccc(S(=O)(=O)Cn2nnnc2CN(Cc2ccco2)CC2CCCO2)cc1 (configuration not stated)	active: 28.2 µM	
CCOc1ccccc1NC(=O)CCS(=O)(=O)c1cccc2nonc12	inconclusive [inhibitor, partial curve]	
COc1ccc(N2C(=O)C3C4C=CC(CC4)C3C2=O)c([N+](=O)[O-])c1 (configuration not stated)		inactive: 2.73%
CC(C)OCCCN1CN(S(=O)(=O)c2cccc(Cl)c2)c2nc3ccccc3nc21		inactive: 7.26%
CN(C(=O)c1ccc(COc2ccccc2Cl)o1)c1ccccc1	inconclusive [inhibitor, partial curve]	
CCS(=O)(=O)Nc1cccc(C2=NN(C(C)=O)C(c3cccs3)C2)c1 (configuration not stated)		inactive: 1.3%
O=S(=O)(c1ccc2c(c1)N(Cc1ccc(Cl)cc1)C1CCCN21)N1CCOCC1 (configuration not stated)	inconclusive [inhibitor, partial curve]	
COc1cc(OC)c(NC(=O)c2cc(CN3CCOCC3)on2)cc1Cl		inactive: 1.15%
COC(=O)C1=C(C)N(Cc2ccco2)C(=O)C1	active: 17.8 µM	
CC(C)NC(=O)CC1C(=O)NCCN1CC(c1ccccc1)c1ccccc1 (configuration not stated)	inconclusive [inhibitor, partial curve]	
CCOc1cccc(C2C(C(=O)c3ccc(C)o3)=C(O)C(=O)N2CCCn2ccnc2)c1 (configuration not stated)	inconclusive [inhibitor, partial curve]	
O=S1(=O)C=CC(Sc2nc3ccccc3[nH]2)C1 (configuration not stated)	inconclusive [inhibitor, partial curve]	
Cc1c(C(=O)NCC2COc3ccccc3O2)oc2ccc(S(=O)(=O)N3CC(C)CC(C)C3)cc12 (configuration not stated)		inactive: -0.123%
COc1ccc(N2CCN(C(=O)c3ccc4c(c3)NC(=O)C(CSCc3ccc(C)cc3)N4)CC2)cc1 (configuration not stated)	inconclusive [inhibitor, partial curve]	
CC1Nc2ncnc(N3CCOCC3)c2N(Cc2ccc(Cl)cc2)C1=O (configuration not stated)	inconclusive [inhibitor, partial curve]	
CC(CNC(=O)c1ccc2c(c1)OCO2)c1ccc([N+](=O)[O-])cc1 (configuration not stated)		inactive: -6.17%
COC(=O)c1cc(NC(=O)c2ccc([N+](=O)[O-])cc2)c(=O)oc1C	active: 56.2 µM	

Structure (SMILES)	Potency	activity change, negative = inhibition
CCOc1ccc2nc(NC(=O)CS(=O)(=O)c3ccc(Cl)cc3)sc2c1		inactive: 6.6%
COc1ccc(S(=O)(=O)N2CCCCCC2)cc1NC(=O)Cc1ccccc1F		inactive: 2.67%
O=C(NC1CCCN(Cc2ccc(Cl)cc2)C1)c1cnc2ccccn2c1=O (configuration not stated)	inconclusive [inhibitor, partial curve]	
CCc1cc(=O)oc2cc(OCc3ccc(C(=O)O)o3)ccc12	inconclusive [inhibitor, full curve, poor fit]	
CCOP(=O)(OCC)c1nc(/C=C/c2ccccc2)oc1NCc1ccc(OC)cc1	inconclusive [inhibitor, single point]	
Cc1ccccc1OCC(=O)Nc1nnc(C2CCCCC2)s1		inactive: 4.9%
Cc1ccccc1-c1noc(C(C)NC(=O)c2ccco2)n1 (configuration not stated)	inconclusive [inhibitor, partial curve]	
O=C(O)c1ccc(-n2nc(C(F)(F)F)cc2-c2cccs2)cc1		inactive: 0.353%
C=CCNc1nc(S(=O)Cc2ccc(C)cc2)nc2c1CCCC2 (configuration not stated)	inconclusive [inhibitor, single point]	
COc1ccc(CN2CCNC(=O)C2CC(=O)NC2CCCCCCC2)cc1C (configuration not stated)	inconclusive [inhibitor, partial curve]	
CCc1cc(/C(Cc2csc(C)n2)=N/O)c(O)cc1O		inactive: 9.67%
CCOC(=O)/C=C/C(=O)Nc1ccc(S(=O)(=O)N2CCCCCC2)cc1	inconclusive [inhibitor, partial curve]	
O=C(NCCc1ccccc1F)C1CCC(=O)N(Cc2ccccc2F)C1 (configuration not stated)	inconclusive [inhibitor, partial curve, poor fit]	
CCN1CCN(c2cc(C)c3cc(NC(=O)c4ccc(C)c(C)c4)ccc3n2)CC1		inactive: -10.3%
Cc1[nH]c2ccccc2c1/C=N/Nc1cccc(C(=O)O)c1	active: 44.7 µM	
COc1cc2c(cc1O)[C@H](Cc1ccc(Oc3cc(C[C@@H]4NCCc5cc(OC)c(O)cc54)ccc3O)cc1)NCC2	inconclusive [inhibitor, partial curve]	
COc1ccc(-c2cn3nc(N4CCC(C(=O)Nc5cccc(Cl)c5)CC4)sc3n2)cc1	inconclusive [inhibitor, single point]	
CC1CCc2c(nc3ncnn3c2Nc2ccc(OC(F)(F)F)cc2)C1 (configuration not stated)	inconclusive [inhibitor, single point]	
Cc1sc2nc(CSC(C)C(=O)Nc3ccc(C#N)cc3)[nH]c(=O)c2c1C (configuration not stated)	inconclusive [inhibitor, partial curve]	
Cc1cc(Nc2ccc(F)cc2)n2c(nc3ccccc32)c1C#N		inactive: -2.48%
CCCCN=c1scc(-c2ccc3c(c2)NC(=O)CO3)n1N=C1CCCC1	inconclusive [inhibitor, partial curve]	
CC(Nc1ccc(S(=O)(=O)N2CCN(C)CC2)cc1[N+](=O)[O-])c1ccccc1 (configuration not stated)	inconclusive [inhibitor, single point]	
COC(=O)C1=C(c2ccc(C(C)=O)cc2)C[C@@H]2CC[C@H]1N2C(=O)NCCCOC(C)C	inconclusive [inhibitor, partial curve]	
COc1ccc(/C=C/c2nc(S(=O)(=O)c3ccccc3)c(N(C)C)o2)cc1	inconclusive [inhibitor, partial curve]	

Structure (SMILES)	Potency	activity change, negative = inhibition
CCN1CCOC(=O)C1CC(=O)Nc1cc(C)cc(C)c1 (configuration not stated)	active: 17.8 µM	
CSC1=NCCN1C(=O)c1cccc(Br)c1		inactive: 5.32%
C=CCc1ccc(OCc2ccc(C(=O)O)o2)c(OC)c1	inconclusive [inhibitor, partial curve]	
CCOc1ccc(N(CC(=O)NCCSCc2ccco2)S(=O)(=O)c2ccc(C)cc2)cc1	inconclusive [inhibitor, partial curve]	
CC(C)N1CCC(N2CCN(Cc3nc4ccccc4s3)CC2CCO)CC1 (configuration not stated)	inconclusive [inhibitor, single point]	
Cc1cccc(N2C(=O)NC(=O)/C(=C/c3ccc(N4CCOCC4)cc3)C2=O)c1	inconclusive [inhibitor, full curve, poor fit]	
CCCN1C2=C(C(=O)CCC2)C(c2ccc(O)c(Br)c2)C2=C1CCCC2=O	inconclusive [inhibitor, single point]	
CCc1nnc(NC(=O)CSc2ccc(-c3ccco3)nn2)s1	active: 7.08 µM	
Cc1ccc(-c2nnc(SCc3ccccc3F)o2)cc1		inactive: -1.56%
COc1ccc(CC(=O)Nc2cccc(-c3nnc(-c4cccc(C)c4)o3)c2)cc1OC		inactive: 7.25%
Cc1nn(C)c(C)c1NC(=O)CCSc1nc(-c2ccco2)cc(C(F)(F)F)n1	inconclusive [inhibitor, partial curve]	
COC(=O)c1c(C)n(Cc2ccco2)c2ccc(O)cc12	inconclusive [inhibitor, full curve]	
Cc1cccc(OCc2nnc(SCC(=O)N(C(C)C)C(C)C)n2Cc2ccco2)c1C	inconclusive [inhibitor, partial curve]	
O=C(CN1CCOCC1)Nc1cccc(C(=O)Nc2cccc(C(F)(F)F)c2)c1		inactive: -14%
CCC(CC)N1CCN(CC2CC=CCC2)CC1 (configuration not stated)		inactive: 5.83%
O=C1CC(c2ccco2)CC(O)=C1C=Nc1cc(Cl)ccc1Cl (configuration not stated)	inconclusive [inhibitor, partial curve]	
O=CN1CCc2scc[n+]2-c2ccccc21	inconclusive [inhibitor, partial curve]	
CCC1(C)Cc2nc3[nH]c(=S)n(-c4ccccc4C)c(=O)c3cc2CO1 (configuration not stated)		inactive: 13%
COc1ccc(CCNC(=O)CS(=O)(=O)c2cn(CC(=O)N3CCOCC3)c3ccccc23)cc1OC	active: 25.1 µM	
COc1ccc(CNC(=O)c2cnc3sc(N4CCCCCC4)nn3c2=O)cc1		inactive: -1.21%
O=C1COc2ccc(N3C(=O)C=CC3=O)cc2N1	active: 0.398 µM	
Cc1ccccc1N1C(=O)NC(=O)/C(=C\c2cc(Br)c(N3CCOCC3)o2)C1=O	inconclusive [inhibitor, partial curve]	
Cc1onc(-c2ccccc2Cl)c1C(=O)Oc1cccc2cccnc12		inactive: 2.81%
CC1CCN(C(=O)COC(=O)c2ccc3c(c2)C(=O)N(Cc2ccco2)C3=O)CC1	inconclusive [inhibitor, partial curve]	

From PubChem BioAssay AID485364 (National Center for Advancing Translational Sciences (NCATS), 2010)
